# Laboratory results from the supplement of paper PMC10037445.
# ± gives the standard deviation of the averaged measurements. Over roughly 2,900 compounds, “IRF Lucia reporter activity, fold change vs agonist alone” has its median near 0.9; the highest 2% begin near 2.8. This is one part of the list.
# Key:
# RAW-Dual [1] = experiment: IRF Lucia reporter activity, fold change vs agonist alone; cytotoxicity flag (confluency mask): not cytotoxic; higher = enhanced IRF activity
# Method in brief: (§1)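 RAW-Dual macrophages were seeded in DMEM at 50,000 cells/well in 384-well plates, given 50 nL of library stock by pin tool, and given a PRR agonist 1 h later. Plates were held at 37 °C, 5% CO2 for 20 hours, after which supernatant was read for IRF by QuantiLuc luminescence and for NF-κB by QuantiBlue absorbance at 620 nm. Reporter activity is expressed as fold change over wells that received agonist alone. A well was called cytotoxic when IncuCyte confluency fell below 70% of agonist controls in both mask sets.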
# RAW-Dual [2] = experiment: IRF Lucia reporter activity, fold change vs agonist alone; higher = enhanced IRF activity; settings: cytotoxicity flag (confluency mask): not cytotoxic, agonist: MPLA (TLR4) […]
# Method in brief: as §1
# RAW-Dual [3] = experiment: IRF Lucia reporter activity, fold change vs agonist alone; cytotoxicity flag (confluency mask): cytotoxic (confluency <70% of control); higher = enhanced IRF activity
# Method in brief: as §1
# [4] = agonist: 3'3'-cGAMP (STING) 10 ug/mL
# [5] = library stock concentration (final ~1000-fold dilution): 10 mM
compound,measurement,setting,value
CSC1(C(=O)Nc2ccc3[nH]nc(-c4ccc(OC(C)C)nc4)c3c2)CCN(CC(=O)N2CC=C(c3ccc(-c4ncn(C)n4)cc3)CC2)C1 (centres undefined) (library stock concentration (final ~1000-fold dilution): 10 mM),IRF Lucia reporter activity,RAW-Dual [1]; [4],0.601
same,IRF Lucia reporter activity,RAW-Dual [1]; agonist: LPS (TLR4) 0.1 ug/mL,1.25
CC(C)c1nc(N(C)S(C)(=O)=O)nc(-c2ccc(F)cc2)c1C=CC(O)CC(O)CC(=O)O (centres undefined),IRF Lucia reporter activity,RAW-Dual [2]; [5],0.959
CC(C)c1nc(N(C)S(C)(=O)=O)nc(-c2ccc(F)cc2)c1C=CC(O)CC(O)CC(=O)O (centres undefined) (library stock concentration (final ~1000-fold dilution): 10 mM),IRF Lucia reporter activity,RAW-Dual [1]; [4],0.848
same,IRF Lucia reporter activity,RAW-Dual [1]; agonist: LPS (TLR4) 0.1 ug/mL,0.956
Cl.NCCNC(=O)c1ccc(Cl)cn1,IRF Lucia reporter activity,RAW-Dual [2]; [5],1.1
Cl.NCCNC(=O)c1ccc(Cl)cn1 (library stock concentration (final ~1000-fold dilution): 10 mM),IRF Lucia reporter activity,RAW-Dual [1]; [4],0.994
same,IRF Lucia reporter activity,RAW-Dual [1]; agonist: LPS (TLR4) 0.1 ug/mL,0.941
Cc1cc(-c2ccc(N=Nc3ccc4c(S(=O)(=O)O)cc(S(=O)(=O)O)c(N)c4c3O)c(C)c2)ccc1N=Nc1ccc2c(S(=O)(=O)O)cc(S(=O)(=O)O)c(N)c2c1O (library stock concentration (final ~1000-fold dilution): 10 mM),IRF Lucia reporter activity,RAW-Dual [1]; [4],0.713
same,IRF Lucia reporter activity,RAW-Dual [1]; agonist: LPS (TLR4) 0.1 ug/mL,0.804
Cc1cc(-c2ccc(N=Nc3ccc4c(S(=O)(=O)O)cc(S(=O)(=O)O)c(N)c4c3O)c(C)c2)ccc1N=Nc1ccc2c(S(=O)(=O)O)cc(S(=O)(=O)O)c(N)c2c1O,IRF Lucia reporter activity,RAW-Dual [2]; [5],1
Cn1cc(-c2cc3c(-c4ccc(CNC(=O)c5noc(C(C)(C)C)n5)c(F)c4)ncnc3[nH]2)cn1 (library stock concentration (final ~1000-fold dilution): 10 mM),IRF Lucia reporter activity,RAW-Dual [1]; [4],0.039
same,IRF Lucia reporter activity,RAW-Dual [1]; agonist: LPS (TLR4) 0.1 ug/mL,0.396
Nc1n[nH]c2nnc(-c3c(-c4ccccc4)nn4ccccc34)cc12,IRF Lucia reporter activity,RAW-Dual [2]; [5],0.945
Nc1n[nH]c2nnc(-c3c(-c4ccccc4)nn4ccccc34)cc12 (library stock concentration (final ~1000-fold dilution): 10 mM),IRF Lucia reporter activity,RAW-Dual [1]; [4],0.275
same,IRF Lucia reporter activity,RAW-Dual [1]; agonist: LPS (TLR4) 0.1 ug/mL,1.4
Cc1cc(C)c2c(c1)C(N(Cc1cc(C(F)(F)F)cc(C(F)(F)F)c1)c1nnn(C)n1)CCCN2CC1CCC(C(=O)O)CC1 (centres undefined),IRF Lucia reporter activity,RAW-Dual [2]; [5],1.38
Cc1cc(C)c2c(c1)C(N(Cc1cc(C(F)(F)F)cc(C(F)(F)F)c1)c1nnn(C)n1)CCCN2CC1CCC(C(=O)O)CC1 (centres undefined) (library stock concentration (final ~1000-fold dilution): 10 mM),IRF Lucia reporter activity,RAW-Dual [1]; [4],1.15
same,IRF Lucia reporter activity,RAW-Dual [1]; agonist: LPS (TLR4) 0.1 ug/mL,1.16
CC1=C(C)C(=O)C(CCCCCCCCCC[P+](c2ccccc2)(c2ccccc2)c2ccccc2)=CC1=O (library stock concentration (final ~1000-fold dilution): 10 mM),IRF Lucia reporter activity,RAW-Dual [1]; [4],0.012
same,IRF Lucia reporter activity,RAW-Dual [1]; agonist: LPS (TLR4) 0.1 ug/mL,0.0121
CC(N)C1CCC(C(=O)Nc2ccncc2)CC1.Cl.Cl (centres undefined) (library stock concentration (final ~1000-fold dilution): 10 mM),IRF Lucia reporter activity,RAW-Dual [1]; [4],0.926
same,IRF Lucia reporter activity,RAW-Dual [1]; agonist: LPS (TLR4) 0.1 ug/mL,0.81
CC(N)C1CCC(C(=O)Nc2ccncc2)CC1.Cl.Cl (centres undefined),IRF Lucia reporter activity,RAW-Dual [2]; [5],0.773
CN1CCC(=C2c3ccccc3C=Cc3ccccc32)CC1,IRF Lucia reporter activity,RAW-Dual [2]; [5],1.15
CN1CCC(=C2c3ccccc3C=Cc3ccccc32)CC1 (library stock concentration (final ~1000-fold dilution): 10 mM),IRF Lucia reporter activity,RAW-Dual [1]; [4],0.396
same,IRF Lucia reporter activity,RAW-Dual [1]; agonist: LPS (TLR4) 0.1 ug/mL,1.49
COc1cc2c(Nc3ccc(NC(=O)c4ccccc4)cc3)ncnc2cc1OCCCN1CCOCC1 (library stock concentration (final ~1000-fold dilution): 10 mM),IRF Lucia reporter activity,RAW-Dual [1]; [4],0.0797
same,IRF Lucia reporter activity,RAW-Dual [1]; agonist: LPS (TLR4) 0.1 ug/mL,0.792
COc1cc2c(Nc3ccc(NC(=O)c4ccccc4)cc3)ncnc2cc1OCCCN1CCOCC1,IRF Lucia reporter activity,RAW-Dual [2]; [5],0.955
CC(=O)Nc1ccc(C(=O)Nc2ccccc2N)cc1 (library stock concentration (final ~1000-fold dilution): 10 mM),IRF Lucia reporter activity,RAW-Dual [1]; [4],0.557
same,IRF Lucia reporter activity,RAW-Dual [1]; agonist: LPS (TLR4) 0.1 ug/mL,0.424
CC(=O)Nc1ccc(C(=O)Nc2ccccc2N)cc1,IRF Lucia reporter activity,RAW-Dual [2]; [5],0.418
CC(C)(C)C(O)/C(=C\c1ccc(Cl)cc1)n1cncn1 (centres undefined) (library stock concentration (final ~1000-fold dilution): 10 mM),IRF Lucia reporter activity,RAW-Dual [1]; [4],1.26
same,IRF Lucia reporter activity,RAW-Dual [1]; agonist: LPS (TLR4) 0.1 ug/mL,0.914
CC(C)(C)C(O)/C(=C\c1ccc(Cl)cc1)n1cncn1 (centres undefined),IRF Lucia reporter activity,RAW-Dual [2]; [5],1.14
CCn1c2ccccc2c2cc(CNCc3ccccc3OC)ccc21.Cl (library stock concentration (final ~1000-fold dilution): 10 mM),IRF Lucia reporter activity,RAW-Dual [3]; [4],0.801
same,IRF Lucia reporter activity,RAW-Dual [3]; agonist: LPS (TLR4) 0.1 ug/mL,1.18
Cl.O=c1[nH]c(C2CCCN2)nc2c1oc1ccc(Cl)cc12 (centres undefined) (library stock concentration (final ~1000-fold dilution): 10 mM water),IRF Lucia reporter activity,RAW-Dual [1]; [4],1.41
same,IRF Lucia reporter activity,RAW-Dual [1]; agonist: LPS (TLR4) 0.1 ug/mL,1.19
Cl.O=c1[nH]c(C2CCCN2)nc2c1oc1ccc(Cl)cc12 (centres undefined),IRF Lucia reporter activity,RAW-Dual [2]; library stock concentration (final ~1000-fold dilution): 10 mM water,1.49
O=C(/C=C/c1ccc(O)c(O)c1)OC(Cc1ccc(O)c(O)c1)C(=O)O (centres undefined) (library stock concentration (final ~1000-fold dilution): 10 mM),IRF Lucia reporter activity,RAW-Dual [1]; [4],0.616 ± 0.12
same,IRF Lucia reporter activity,RAW-Dual [1]; agonist: LPS (TLR4) 0.1 ug/mL,1.01 ± 0.053
O=C(/C=C/c1ccc(O)c(O)c1)OC(Cc1ccc(O)c(O)c1)C(=O)O (centres undefined),IRF Lucia reporter activity,RAW-Dual [2]; [5],1.16 ± 0.35
